The structures appear in SMILES notation. The whole screen tested about 310,000 compounds, of which about 2,200 (0.71%) showed an effect of 50% or more. The effect is printed as a negative number. Some of the results follow.

The target of this assay is human ether-à-go-go-related gene (hERG) potassium channel (human, UniProt Q12809). The assay is described as follows: primary screen, population patch clamp on CHO cells stably expressing hERG.
human ether-à-go-go-related gene (hERG) potassium channel, sequence (Q12809 whole entry, looked up): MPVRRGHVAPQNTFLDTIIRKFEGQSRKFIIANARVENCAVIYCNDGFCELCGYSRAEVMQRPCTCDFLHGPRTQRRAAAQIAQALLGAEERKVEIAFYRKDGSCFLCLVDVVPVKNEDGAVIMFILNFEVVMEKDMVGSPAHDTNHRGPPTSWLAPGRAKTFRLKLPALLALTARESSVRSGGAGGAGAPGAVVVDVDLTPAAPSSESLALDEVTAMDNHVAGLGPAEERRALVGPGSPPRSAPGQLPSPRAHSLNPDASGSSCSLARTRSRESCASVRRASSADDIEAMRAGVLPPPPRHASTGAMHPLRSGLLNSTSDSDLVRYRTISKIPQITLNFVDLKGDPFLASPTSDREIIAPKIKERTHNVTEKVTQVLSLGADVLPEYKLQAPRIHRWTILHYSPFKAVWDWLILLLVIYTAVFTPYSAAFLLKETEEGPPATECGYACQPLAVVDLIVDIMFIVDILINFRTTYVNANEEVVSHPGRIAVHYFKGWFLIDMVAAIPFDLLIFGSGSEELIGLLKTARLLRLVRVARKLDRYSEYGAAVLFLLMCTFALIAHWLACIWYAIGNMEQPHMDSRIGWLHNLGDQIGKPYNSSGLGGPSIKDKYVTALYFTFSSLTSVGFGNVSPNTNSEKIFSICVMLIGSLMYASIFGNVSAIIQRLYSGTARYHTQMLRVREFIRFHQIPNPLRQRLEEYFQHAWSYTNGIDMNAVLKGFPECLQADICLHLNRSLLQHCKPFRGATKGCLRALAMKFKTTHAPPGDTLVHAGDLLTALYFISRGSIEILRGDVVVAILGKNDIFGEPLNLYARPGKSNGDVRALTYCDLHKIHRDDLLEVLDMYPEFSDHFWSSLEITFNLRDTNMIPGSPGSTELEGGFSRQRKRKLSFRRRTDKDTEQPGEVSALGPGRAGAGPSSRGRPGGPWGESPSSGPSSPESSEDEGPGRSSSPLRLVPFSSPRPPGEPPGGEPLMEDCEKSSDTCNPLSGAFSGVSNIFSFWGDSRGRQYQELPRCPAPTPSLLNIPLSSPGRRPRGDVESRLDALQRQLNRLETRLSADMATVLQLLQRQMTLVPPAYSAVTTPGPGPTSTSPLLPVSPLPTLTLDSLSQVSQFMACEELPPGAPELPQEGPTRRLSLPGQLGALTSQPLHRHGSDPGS
For the compound `CC(=O)Nc1ccc(C(=O)CSc2nnc(C)o2)cc1`, the “hERG current change (%, negative = inhibition) at 1uM” value was found to be 2.67%.
As for `CCC(O)CNC(=O)NC(=C(Cl)Cl)c1ccc(C)c(F)c1` (stereo not shown), the figure is -2.35%; as for `CCCCn1c(=O)n(CC(=O)Nc2ccc(OC)c(Cl)c2)c(=O)c2c1nc(CO)n2CCC`, 12%.
As for `CC(C)NC(=O)c1ccc(-c2cc(C(F)(F)F)ccc2Cl)o1`, the figure is 6.75%.
Turning to `Cc1c(Cl)cccc1NC(=O)CSCC(N)=O`, the “hERG current change (%, negative = inhibition) at 1uM” value was -5.11%.
With `Cc1ccc([C@@H]2[C@@H]3C(=O)N(c4ccccc4)C(=O)[C@@H]3[C@]3(C)C(=O)N(Cc4ccc(-c5ccccc5)cc4)CC(=O)N23)o1` the figure was 9.8%.
For `O=C(c1ccccc1)c1ccc(Cn2cc(-c3ccccc3)nn2)cc1`, the “hERG current change (%, negative = inhibition) at 1uM” value is recorded as -11.1%.
As for `Cc1onc(-c2c(F)cccc2Cl)c1C(=O)N1CCc2ccccc2C1`, the figure is 0.111%; as for `O=C(c1ccco1)N(Cc1cccc([N+](=O)[O-])c1)c1ccc(Br)cc1`, -11.4%.
As for `CC(=O)Nc1ccc(S(=O)(=O)c2ccc(C)cc2)cc1`, the figure is 19.7%; as for `Cc1no[n+]([O-])c1COc1cccc(/C=C2\N=C(c3ccccc3)OC2=O)c1`, 11.8%; as for `COc1ccc(S(=O)(=O)N2CC(C(=O)O)Oc3ccc(CC(=O)O)cc32)cc1` (stereo not shown), 19%.
As for `CC(C)COc1ccc(Cc2cnc(N)nc2N)cc1`, the figure is 3.93%; as for `C/C(=N\NC(=O)Cc1ccc(Cl)cc1)c1ccc(F)cc1`, 12.3%; as for `CCN1CCN(C(=O)NC2CC(=O)N(c3ccc(OC)cc3)C2)CC1` (stereo not shown), 12.5%.
Consider `CC1CCN(CCOc2cccc(Br)c2)CC1.O=C(O)C(=O)O`, for which the “hERG current change (%, negative = inhibition) at 1uM” value is listed as -0.356%.
For `CC(O)CNc1nc2sc3c(c2c(=O)n1Cc1ccco1)CCCCC3` (stereo not shown), the “hERG current change (%, negative = inhibition) at 1uM” value is listed as 11.4%.
As for `CC(C)CNC(=O)NC(=O)COC(=O)c1ccccc1Sc1ccc(C(F)(F)F)cc1[N+](=O)[O-]`, the figure is 16.9%; as for `CCCn1ncc(CN2CCC(C(=O)Nc3cccc(-c4cccc(F)c4)c3)CC2)c1C`, -60.6%; as for `O=C(CN1C(=O)NC2(CCOc3ccccc32)C1=O)Nc1cccc(Cl)c1` (stereo not shown), 6.54%.
As for `COC(=O)N1C(=O)[C@@](c2ccccc2)(C2CCCCC2)N1C(=O)OC`, the figure is 18.7%; as for `CCOc1cc(N2CCOCC2)c(OCC)cc1NC(=O)c1cccc(N(C)C)c1`, 1.71%; as for `COc1ccc(N2CC(C(=O)Nc3nc4ccc(F)cc4s3)CC2=O)c(OC)c1` (stereo not shown), 2.8%.
With `C=CCNC(=O)c1ccc2c(c1)nnn2C` the figure was 10%.
On to `CCc1ccc(NC(=O)Cn2nnc(C(=O)NCc3cccs3)c2N)cc1`, for which the “hERG current change (%, negative = inhibition) at 1uM” value was determined as 10.1%.
With `Cc1ccc(C(=O)N/N=C/C=C/c2ccccc2)cc1` the figure was 6.78%; with `COc1cc(CNc2ccc(NC(C)=O)cc2)ccc1OCc1ccccc1C`, 1.41%; with `Cc1ccc(NC(=O)CN(C)C(=O)C2CC(=O)N(Cc3ccccc3)C2)cc1` (stereo not shown), 0.268%.
As for `O=C(CCNc1ccc(Cl)c(C(F)(F)F)c1)c1ccco1`, the figure is 6.68%; as for `CN(CC(=O)Nc1c(Cl)cccc1Cl)C(=O)CNC(=O)c1ccc2c(c1)OCO2`, 8.08%.
With `COc1cccc(N2C(=O)NC(=O)C3(Cc4cc(C)ccc4N(C)C3)C2=O)c1` (stereo not shown) the figure was 15.8%; with `COc1ccc(NC(=O)CCCCCN2C(=O)c3ccccc3C2=O)c(OC)c1`, 3.72%.
`COc1cc(C(=O)NC(=S)Nc2ccc3c(c2)OCO3)cc(OC)c1OC`: the “hERG current change (%, negative = inhibition) at 1uM” value worked out at 2.6%.
`CCOc1ccc(C(C(=O)NC(C)(C)C)N(CCOC)C(=O)CCC(=O)Nc2ccccn2)cc1` (stereo not shown): the “hERG current change (%, negative = inhibition) at 1uM” value stood at 8.52%.
With `CCc1ccc(NC(=O)CSc2nc(O)cc(=O)n2C2CCCC2)cc1`, the “hERG current change (%, negative = inhibition) at 1uM” value is on record as 11.2%.
As for `CC(C#N)Sc1nc2ccccc2c(=O)n1-c1ccccc1` (stereo not shown), the figure is 2.62%; as for `CCn1c(=O)cc(SCC(=O)Nc2ccc(Cl)cc2)c2ccccc21`, 1.1%; as for `CC(C)c1ccc(N(CC(=O)NN=C2CCN(C)CC2)S(=O)(=O)c2ccccc2)cc1`, 2.85%.
With `Cc1cc(C)n(C(=O)CCC(=O)Nc2ccc(C)c(C)c2)n1` the figure was 13%; with `CC1Cc2ccccc2N1S(=O)(=O)c1cccc(C(=O)NCCCO)c1` (stereo not shown), -7.47%.
With `O=C(CCC(=O)N1CCOc2ccccc21)NCc1cccnc1` the figure was 8.94%; with `Cc1ccc(N(CC2=NCCN2)c2cccc(O)c2)cc1.Cl`, -20.3%.
For `CC1CC(C)CN(CC(=O)Nc2ccc3c(c2)OCCO3)C1.O=C(O)C(=O)O` (stereo not shown), the “hERG current change (%, negative = inhibition) at 1uM” value is 7.64%.
With `O=C(C1COc2ccccc2O1)N1CCN(c2ccccc2Cl)CC1` (stereo not shown) the figure was 12.8%; with `CCOc1ccc(C(=O)c2cc([N+](=O)[O-])ccc2N2CCOCC2)cc1`, 8.79%.
As for `Cl.OCCN(CCO)Cc1csc2ccccc12`, the figure is 10.9%.
Consider `Cc1noc(C)c1S(=O)(=O)N(CC(=O)N1CCCC1)c1ccc(C(C)C)cc1`, for which the “hERG current change (%, negative = inhibition) at 1uM” value is recorded as -2.15%.
With `COc1cc2nc(NCC3CCCO3)n3nc(-c4cccnc4)nc3c2cc1OC` (stereo not shown) the figure was -9.54%.
With `O=C(COC(=O)c1cc(=O)[nH]c2ccccc12)Nc1nccs1` the figure was 11.3%; with `CC(=O)c1cccc(NC(=O)CN2CCN(Cc3ccccc3)CC2)c1.Cl`, 8.66%.
In the case of `CC(C)C(=O)N(c1ccc2oc(=O)sc2c1)S(=O)(=O)c1ccccc1`, the “hERG current change (%, negative = inhibition) at 1uM” value was determined as 16.4%.
As for `COc1ccc(NC(=O)c2cnn(-c3ccccc3)c2C)cc1OC`, the figure is 10.1%; as for `O=C(NC1CCS(=O)(=O)C1)c1ccc(S(=O)(=O)N2CCCCC2)cc1` (stereo not shown), -3.73%.
`Cc1ccc(CSc2nnc3c(n2)OC2(Nc4ccccc4-3)C(=O)Nc3ccc(F)cc32)cc1` (stereo not shown): the “hERG current change (%, negative = inhibition) at 1uM” value stood at 13.2%.
As for `CC(=O)c1ccc(NC(=O)CCNC(=O)c2ccc(Cl)cc2)cc1`, the figure is 9.63%.

These data come from publication PMC4336329 (PLoS ONE, 2015).
